Measured values: article PMC4265154, “A reversible Renilla luciferase protein complementation assay for rapid identification of protein–protein interactions reveals the existence of an interaction network involved in xyloglucan biosynthesis in the plant Golgi apparatus” (Journal of Experimental Botany, 2014)
No constants are given. Whether binding was seen depends on the method and setting. For part of these data: Binding seen in cells or lysates may run through a third protein. Sequences can lack the tags named with a protein. Some entries that bind do so weakly or less than the wild type. Blank lines part the entries; values can stand above or below the binder they belong to.

What was measured:
[1] = molecular target: T1, IRX14 fused to hRluc fragment [F1] or [F2] (Arabidopsis thaliana) (UniProt Q8L707); assay: split reporter; Rluc-PCA: proteins with C-terminal hRluc[F1]-HA and hRluc[F2]-FLAG co-expressed with p19 in N. benthamiana leaves for 72 h (Agrobacterium OD600 0.2 each, p19 0.05); pooled leaf discs macerated in 0.5 M NaCl, 0.1 M potassium phosphate pH 7.4, 1 mM EDTA, 0.02% BSA, protease inhibitors; 10 uM coelenterazine-h, luminescence 30 s; compared with p19 alone
T1 sequence: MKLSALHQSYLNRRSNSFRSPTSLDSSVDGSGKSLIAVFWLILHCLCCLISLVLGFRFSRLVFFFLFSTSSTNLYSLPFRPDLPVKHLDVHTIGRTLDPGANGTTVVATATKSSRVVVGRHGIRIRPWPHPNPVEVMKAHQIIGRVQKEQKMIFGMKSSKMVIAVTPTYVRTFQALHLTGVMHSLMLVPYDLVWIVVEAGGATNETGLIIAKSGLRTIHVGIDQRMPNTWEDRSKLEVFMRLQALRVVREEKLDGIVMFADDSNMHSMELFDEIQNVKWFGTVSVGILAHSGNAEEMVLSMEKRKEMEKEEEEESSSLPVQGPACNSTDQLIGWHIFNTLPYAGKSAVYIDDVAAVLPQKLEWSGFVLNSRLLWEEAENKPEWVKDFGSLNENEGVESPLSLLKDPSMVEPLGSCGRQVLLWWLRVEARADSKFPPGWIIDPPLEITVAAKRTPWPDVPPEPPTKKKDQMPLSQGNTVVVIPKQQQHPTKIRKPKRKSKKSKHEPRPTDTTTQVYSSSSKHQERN

[2] = molecular target: T2, IRREGULAR XYLEM9 (IRX9) fused to hRluc fragment [F1] or [F2] (Arabidopsis thaliana) (UniProt Q9ZQC6); assay: as above
T2 sequence: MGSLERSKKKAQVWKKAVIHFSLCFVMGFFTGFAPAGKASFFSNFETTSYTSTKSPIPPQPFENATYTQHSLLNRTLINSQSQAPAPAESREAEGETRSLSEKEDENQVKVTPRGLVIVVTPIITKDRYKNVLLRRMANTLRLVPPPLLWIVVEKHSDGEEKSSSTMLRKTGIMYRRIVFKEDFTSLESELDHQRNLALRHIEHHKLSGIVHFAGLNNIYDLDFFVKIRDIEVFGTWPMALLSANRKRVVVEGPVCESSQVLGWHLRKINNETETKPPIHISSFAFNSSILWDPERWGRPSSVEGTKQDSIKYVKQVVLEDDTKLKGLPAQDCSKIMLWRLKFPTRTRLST

[3] = molecular target: T3, MUR3 fused to TF–Cub or NubG (split-ubiquitin assay) (Arabidopsis thaliana) (UniProt Q7XJ98); assay: two-hybrid; split-ubiquitin assay (DUALmembrane) in yeast NMY51: TF–Cub (bait) and NubG (prey) at the N-termini; growth on SD-His-Leu-Trp-Ade scored as interaction, X-gal overlay for β-galactosidase
T3 sequence: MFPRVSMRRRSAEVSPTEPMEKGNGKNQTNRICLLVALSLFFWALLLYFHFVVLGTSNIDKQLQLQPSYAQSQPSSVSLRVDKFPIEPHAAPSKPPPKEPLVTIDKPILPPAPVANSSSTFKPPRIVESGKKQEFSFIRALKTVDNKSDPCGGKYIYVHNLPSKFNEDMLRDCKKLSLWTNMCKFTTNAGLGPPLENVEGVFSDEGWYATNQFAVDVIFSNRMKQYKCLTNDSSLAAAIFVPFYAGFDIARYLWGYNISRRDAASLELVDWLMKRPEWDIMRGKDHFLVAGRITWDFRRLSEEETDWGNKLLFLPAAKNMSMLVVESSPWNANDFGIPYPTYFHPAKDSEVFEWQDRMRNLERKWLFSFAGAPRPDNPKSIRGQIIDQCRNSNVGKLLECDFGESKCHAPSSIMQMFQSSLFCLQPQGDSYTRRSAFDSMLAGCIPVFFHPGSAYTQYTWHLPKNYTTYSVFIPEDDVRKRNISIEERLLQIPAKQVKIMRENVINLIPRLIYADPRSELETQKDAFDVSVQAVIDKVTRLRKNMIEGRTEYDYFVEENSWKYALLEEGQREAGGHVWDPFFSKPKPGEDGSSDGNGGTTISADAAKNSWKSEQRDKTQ

[4] = molecular target: T4, FUT1 fused to TF–Cub or NubG (split-ubiquitin assay) (Arabidopsis thaliana) (UniProt Q9SWH5); assay: as above
T4 sequence: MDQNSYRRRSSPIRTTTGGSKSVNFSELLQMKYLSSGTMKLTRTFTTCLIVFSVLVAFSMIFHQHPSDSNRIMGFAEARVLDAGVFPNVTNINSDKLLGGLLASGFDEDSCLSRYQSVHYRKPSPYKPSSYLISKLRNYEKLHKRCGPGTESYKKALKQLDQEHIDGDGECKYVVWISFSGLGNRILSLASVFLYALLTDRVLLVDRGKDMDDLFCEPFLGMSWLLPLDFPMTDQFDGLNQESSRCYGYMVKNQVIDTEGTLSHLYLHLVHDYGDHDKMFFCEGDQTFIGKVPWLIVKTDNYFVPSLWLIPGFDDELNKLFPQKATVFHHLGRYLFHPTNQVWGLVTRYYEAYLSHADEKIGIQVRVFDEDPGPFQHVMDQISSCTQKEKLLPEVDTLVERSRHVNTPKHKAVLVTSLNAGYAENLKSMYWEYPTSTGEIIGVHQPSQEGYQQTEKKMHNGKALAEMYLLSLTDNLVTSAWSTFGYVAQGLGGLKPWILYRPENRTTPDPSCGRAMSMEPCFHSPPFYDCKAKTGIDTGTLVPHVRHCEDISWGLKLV

B1: IRX10-L fused to hRluc fragment [F1] or [F2] (protein, UniProt Q940Q8 1-415)
chain: MKLSSCVLIFLLCNTFSSISAFRLSRSQPTERISGSAGDVLEDDPVGRLKVFVYELPSKYNKKILQKDPRCLNHMFAAEIYMQRFLLSSPVRTLNPEEADWFYVPVYTTCDLTPNGLPLPFKSPRMMRSAIQLIASNWPYWNRTEGADHFFVVPHDFGACFHYQEEKAIGRGILPLLQRATLVQTFGQRNHVCLKEGSITVPPYAPPQKMQSHLIPEKTPRSIFVYFRGLFYDVGNDPEGGYYARGARAAVWENFKDNPLFDISTEHPTTYYEDMQRAIFCLCPLGWAPWSPRLVEAVIFGCIPVIIADDIVLPFADAIPWEDIGVFVDEKDVPYLDTILTSIPPEVILRKQRLLANPSMKQAMLFPQPAQPGDAFHQVLNGLARKLPHERSVYLRPGEKLLNWTAGPVADLKPW
binding [1]: no binding

B2: ARABINAN DEFICIENT1 (ARAD1) fused to hRluc fragment [F1] or [F2] (natural protein, Arabidopsis thaliana, UniProt Q6DBG8 1-447, looked up)
chain: MARKSSLLKRAAIAVVSVIAIYVILNASVSRSLPSSSDLPRQLIREDDDDEGRAPIQPRVRVYMYNLPKRFTYGLIEQHSIARGGIKKPVGDVTTLKYPGHQHMHEWYLFSDLNQPEVDRSGSPIVRVSDPADADLFYVPVFSSLSLIVNAGRPVEAGSGYSDEKMQEGLVEWLEGQEWWRRNAGRDHVIPAGDPNALYRILDRVKNAVLLVSDFGRLRPDQGSFVKDVVIPYSHRVNLFNGEIGVEDRNTLLFFMGNRYRKDGGKVRDLLFQVLEKEDDVTIKHGTQSRENRRAATKGMHTSKFCLNPAGDTPSACRLFDSIVSLCVPLIVSDSIELPFEDVIDYRKFSIFVEANAALQPGFLVQMLRKIKTKKILEYQREMKSVRRYFDYDNPNGAVKEIWRQVSHKLPLIKLMSNRDRRLVLRNLTEPNCSCLCTNQTGLITSI
notes: Made in two forms, one with [F1]-HA and one with [F2]-FLAG; a chain carries one of the two; also called ARAD1-[F1]; ARAD1-[F2]; source: N. benthamiana leaves, transient expression (A. tumefaciens GV3101, with p19), in crude leaf macerate; not shown: hRluc[F1]; (Renilla luciferase residues 1-110) with HA, C-terminal, kept; hRluc[F2]; (Renilla luciferase residues 111-310) with FLAG, C-terminal, kept
binding [2]: no binding

B5: MUR3 fused to TF–Cub or NubG (split-ubiquitin assay) (protein, UniProt Q7XJ98 1-619)
chain: T3 sequence
binding [4]: binds
binding [3]: binds

Continued, values first:

binding [3]: binds
B3: XXT2 fused to TF–Cub or NubG (split-ubiquitin assay) (protein, UniProt O22775 1-461)
chain: MIERCLGAYRCRRIQRALRQLKVTILCLLLTVVVLRSTIGAGKFGTPEQDLDEIRQHFHARKRGEPHRVLEEIQTGGDSSSGDGGGNSGGSNNYETFDINKIFVDEGEEEKPDPNKPYTLGPKISDWDEQRSDWLAKNPSFPNFIGPNKPRVLLVTGSAPKPCENPVGDHYLLKSIKNKIDYCRLHGIEIFYNMALLDAEMAGFWAKLPLIRKLLLSHPEIEFLWWMDSDAMFTDMAFELPWERYKDYNLVMHGWNEMVYDQKNWIGLNTGSFLLRNNQWALDLLDTWAPMGPKGKIREEAGKVLTRELKDRPVFEADDQSAMVYLLATQRDAWGNKVYLESGYYLHGYWGILVDRYEEMIENYHPGLGDHRWPLVTHFVGCKPCGKFGDYPVERCLKQMDRAFNFGDNQILQIYGFTHKSLASRKVKRVRNETSNPLEMKDELGLLHPAFKAVKVQTNQV

binding [4]: no binding
B4: XXT1 fused to TF–Cub or NubG (split-ubiquitin assay) (protein, UniProt Q9LZJ3 1-460)
chain: MIEKCIGAHRFRRLQRFMRQGKVTILCLVLTVIVLRGTIGAGKFGTPEKDIEEIREHFFYTRKRGEPHRVLVEVSSKTTSSEDGGNGGNSYETFDINKLFVDEGDEEKSRDRTNKPYSLGPKISDWDEQRRDWLKQNPSFPNFVAPNKPRVLLVTGSAPKPCENPVGDHYLLKSIKNKIDYCRIHGIEIFYNMALLDAEMAGFWAKLPLIRKLLLSHPEIEFLWWMDSDAMFTDMVFELPWERYKDYNLVMHGWNEMVYDQKNWIGLNTGSFLLRNSQWSLDLLDAWAPMGPKGKIREEAGKVLTRELKDRPAFEADDQSAMVYLLATEREKWGGKVYLESGYYLHGYWGILVDRYEEMIENHKPGFGDHRWPLVTHFVGCKPCGKFGDYPVERCLRQMDRAFNFGDNQILQMYGFTHKSLGSRRVKPTRNQTDRPLDAKDEFGLLHPPFKAAKLSTTTT
